# ± gives the standard deviation of the averaged measurements. The list shows a part of the results.
# System: PfAP2-LT AP2 domain (GST-tagged)
# Experiment: gcPBM binding intensity (ln(normalized median fluorescence intensity)); higher = stronger DNA binding
# Method in brief: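 The binding buffer was 1× PBS containing 1% milk, 0.2 mg/ml BSA, 0.5% salmon testes DNA and 0.03% Triton X-100. In it, GST-tagged P. falciparum DNA-binding domains expressed in E. coli were applied for 1 h to an Agilent 4 × 180k array of primer-extended double-stranded 36-bp intergenic genomic probes plus negative controls. Binding intensity, read with Alexa488 anti-GST antibody and a 488 nm scan, is the highest Masliner-normalised natural-log median intensity across replicate spots of either probe orientation.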
row,Sequence,gcPBM binding intensity (ln)
1,TAAACAGATATATTTTGTACATATTGTATATTTTGT [XGTACX_site713],8.84 ± 0.47
2,AAGGAAAATTTTTGGTGTACACAAAAAAATCCAAAA [XGTACX_site3596],8.86 ± 0.58
3,ACACATATGACAAATAGTACATAAATATATAAATAT [XGTACX_site7141],9.22 ± 0.48
4,TTAATATATTATATTTGTACATATATATATATACAA [XGTACX_site4798],8.56 ± 0.35
5,AAATTGTGTTCATCAGCACACACAACATCATGTAAT [CACACA_site8556],9.38 ± 0.43
6,AATAAATCTTTTTGTTGTACTAAAAATATTATTAGC [XGTACX_site3335],8.41 ± 0.35
7,CGAAAGAAAAAAAGCACACACAGTTTTGAGCAATGA [CACACA_site2109],9.18 ± 0.46
8,ACAAAAAAGTAAAAAGTGCATGTAAAATATAAGTAT [GTGCAC_site9438],9.24 ± 0.48
9,TATAAATAAATATGTACACACATATATACCTTTCAT [CACACA_site7291],8.99 ± 0.42
10,AATAATTAACAAAAAAAAAAAAAAAAAAAAAAAAAA [GTGCAC_negctrl_site255],8.35 ± 0.24
11,TATGTATTATATATTTGTACTCATTCTAATTCCTTC [XGTACX_site7294],8.91 ± 0.53
12,TATCTTTATATATAGTGTACACATTAAACAAATCTC [XGTACX_site7381],8.75 ± 0.27
13,TATTAATGATAAGAATATTTTATATGATACATGCAT [CACACA_negctrl_site923],8.8 ± 0.51
14,TTTAGTTTTTATATAGCACACATATTGTGATTATGT [CACACA_site8316],9.01 ± 0.38
15,AATTTATAAAAGAAGAGGACACATATAAATATAAAT [XGTACX_site59],8.78 ± 0.52
16,ATATTCATATATTTACGTACATACATTTATATATTT [XGTACX_site7644],9.11 ± 0.52
17,ACATATATGTATAATACACACACTAATATATAATTG [CACACA_site1966],9.52 ± 0.19
18,ATTTAAAAAAAAACGGAATTTTTTTTTTTTTTAAAG [XGTACX_negctrl_site91],8.11 ± 0.52
19,TATATTAATGTTCATAGTACGTATGATTAGGAAAAA [XGTACX_site616],8.64 ± 0.45
20,GGAAAGACAGTTCACAGTACCCAGGAAATCTGCGGA [XGTACX_site4933],8.8 ± 0.61
21,TAATACAGATTAAAAGGTACACTTATTTGGTATTAT [XGTACX_site4966],8.81 ± 0.38
22,TTAATATGAATTATTACATGCAACTAAATATATTTA [TGCATGCA_site490],8.38 ± 0.44
23,ACAAAATATATAGACACACAAACACAAATATGTTTT [CACACA_site3016],9.09 ± 0.46
24,ATACAATTCTTACATTGTACTTTTTTTTTTTATCAC [XGTACX_site6327],8.83 ± 0.54

# — the supplement of paper PMC11417369
